From the supplement of paper PMC12217912
The list shows a part of the results. Sequences were assembled here from the parent chain. Inactive controls read about 0.05.

B1: TEV protease; numbered along this chain (parent)
chain: MGESLFKGPRDYNPISSSICHLTNESDGHTTSLYGIGFGPFIITNKHLFRRNNGTLVVQSLHGVFKVKDTTTLQQHLVDGRDMIIIRMPKDFPPFPQKLKFREPQREERICLVTTNFQTKSMSSMVSDTSCTFPSGDGIFWKHWIQTKDGQCGSPLVSTRDGFIVGIHSASNFTNTNNYFTSVPKNFMELLTNQEAQQWVSGWRLNADSVLWGGHKVFMVKPEEPFQPVKEATQL

Variants of: B1
Assay: raw area under fraction-flipped curve 0-4 h after induction (AUC4h, not background-subtracted), DNA-recorder readout of cleavage of the substrate (dimensionless); higher = more cleavage of the substrate by the protease variant
Details: temperature: 34 °C; time window: 0-4 h after rhamnose induction
Procedure: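 In vivo DNA recorder in E. coli TOP10(DE3) ΔrhaA at 34 °C. Each TEVp single-site mutant (parent TEVp 0) is paired with a single-site variant of the 7-mer TEVs (canonical ENLYFQ|S). The substrate sits between flexible linkers in a Bxb1-sfGFP-TEVs-SsrA fusion, so cleavage stabilises Bxb1 and speeds flipping of a recombination array, read by NGS. The value is the raw area under the fraction-flipped curve over 0-4 h after rhamnose induction (AUC4h), with ≥20 reads per time point. It is not background-subtracted; inactive controls average about 0.047.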
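Also: Bxb1 expression induced with 0.2% (w/v) L-rhamnose at OD600 near 0.5, cultures sampled hourly, flipped fraction per protease–substrate barcode pair counted by paired-end Illumina sequencing.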

Variant | area with substrate ENLYFQC | area with substrate ENLYFQG | area with substrate ENLYFQH | area with substrate ENLYFQI | area with substrate ENLYFQK | area with substrate ENLYFQL | area with substrate ENLYFQS | area with substrate ENLYFQY | area with substrate ENLYFQM | area with substrate ENLYFQR | area with substrate ENLYFQT | area with substrate ENLYFQW | area with substrate ENLYFQD | area with substrate ENLYFQF | area with substrate ENLYFQQ | area with substrate ENLYFQV | area with substrate ENLYFQP | area with substrate ENLYFQN | area with substrate ENLYFQE
S130D | 0.0869 | 0.0869 | 0.0698 | 0.0731 | 0.0758 | 0.0808 | 0.0921 | 0.0726 |  |  |  |  |  |  |  |  |  |  | 
T132Q | 0.0876 | 0.0759 | 0.0632 |  | 0.0384 | 0.0542 | 0.0804 |  | 0.0541 | 0.0537 | 0.0644 | 0.0758 |  |  |  |  |  |  | 
F133C | 0.0905 |  | 0.0812 | 0.0613 |  | 0.0474 | 0.104 |  |  | 0.0602 |  |  | 0.0671 |  |  |  |  |  | 
G136Y | 0.0615 | 0.112 |  | 0.0582 | 0.0775 | 0.0622 | 0.0998 |  | 0.0928 | 0.0585 |  | 0.0781 | 0.0788 | 0.077 | 0.0711 | 0.0625 |  |  | 
I139P | 0.129 |  | 0.0936 |  | 0.0374 |  | 0.115 | 0.0637 |  |  | 0.0581 | 0.0639 | 0.0479 |  | 0.0623 |  | 0.0665 |  | 
I139W | 0.109 |  | 0.083 | 0.0802 |  | 0.0537 | 0.0931 | 0.066 |  | 0.0728 |  | 0.0676 | 0.0842 |  |  | 0.062 | 0.0543 | 0.072 | 
W141C | 0.0612 |  |  | 0.0725 | 0.0659 | 0.055 | 0.0669 | 0.0565 | 0.0579 | 0.063 | 0.0912 | 0.0557 |  |  |  | 0.0622 | 0.0613 |  | 
I145Q | 0.0733 |  | 0.0584 | 0.0688 | 0.0599 | 0.0511 | 0.0713 |  | 0.0934 | 0.0621 |  | 0.0555 |  |  |  | 0.0472 | 0.0558 |  | 
T147P | 0.0918 | 0.0872 | 0.0655 | 0.0538 | 0.0652 | 0.0434 | 0.0748 | 0.0582 | 0.0777 | 0.0667 | 0.0759 | 0.047 |  |  | 0.0407 | 0.0584 | 0.0567 | 0.0624 | 
S154R | 0.0917 | 0.072 | 0.0527 |  | 0.0528 | 0.0445 | 0.0776 | 0.0602 | 0.0639 | 0.0549 | 0.0449 | 0.0668 |  | 0.0664 | 0.0586 |  | 0.0723 | 0.0571 | 
P155H | 0.0527 |  |  | 0.0709 | 0.0462 | 0.0639 | 0.0518 |  |  | 0.0582 | 0.0393 | 0.0363 | 0.0527 |  | 0.0493 | 0.0521 | 0.0531 | 0.0224 | 0.0547
P155V | 0.0943 |  | 0.0594 | 0.0511 | 0.0604 | 0.0482 | 0.0892 |  | 0.0695 | 0.0763 | 0.059 | 0.0583 | 0.073 |  |  | 0.0569 |  | 0.105 | 0.0574
L156C | 0.124 | 0.122 |  | 0.0604 | 0.0599 | 0.051 | 0.105 | 0.082 | 0.0875 | 0.0379 | 0.0661 | 0.0645 |  |  | 0.0946 |  | 0.0493 | 0.0858 | 
S158A | 0.117 |  |  | 0.0415 |  |  | 0.0968 |  |  | 0.0669 | 0.064 | 0.0653 | 0.0698 |  | 0.096 | 0.033 |  |  | 
S158I | 0.0581 |  |  |  |  | 0.0565 | 0.05 | 0.0183 | 0.0613 | 0.0467 | 0.0046 |  | 0.0308 |  |  |  |  | 0.0542 | 
R160S | 0.11 |  |  |  |  |  | 0.113 |  | 0.108 |  |  |  |  |  |  |  | 0.0539 |  | 
D161R | 0.0885 | 0.0612 | 0.0554 | 0.0651 | 0.064 | 0.0459 | 0.0657 | 0.0673 | 0.0803 | 0.0524 | 0.0645 | 0.0507 | 0.0555 |  |  |  | 0.0627 | 0.0571 | 
D161S | 0.086 |  | 0.0523 | 0.0711 | 0.0658 | 0.0561 | 0.0823 | 0.0634 | 0.0728 | 0.0597 |  | 0.0544 |  |  |  | 0.0489 |  | 0.05 | 
I164M | 0.0855 | 0.0859 | 0.0531 | 0.0625 | 0.056 | 0.0498 | 0.0784 | 0.0615 | 0.0626 | 0.069 | 0.061 | 0.0547 | 0.0728 | 0.0658 | 0.0743 | 0.0589 | 0.0534 | 0.0649 | 
I164N | 0.0366 |  | 0.0591 | 0.093 | 0.0583 | 0.0536 | 0.0529 | 0.0504 |  | 0.0506 | 0.0568 | 0.0554 | 0.0489 |  |  |  | 0.0508 |  | 0.0688
V165A | 0.0514 | 0.0521 |  | 0.0307 |  |  | 0.054 |  | 0.0664 |  |  |  |  |  | 0.0487 | 0.0585 | 0.0452 | 0.0545 | 
G166I | 0.0435 | 0.0519 | 0.0447 | 0.0406 | 0.0437 | 0.0436 | 0.0508 | 0.0416 | 0.0609 | 0.0502 | 0.0473 | 0.056 | 0.0513 | 0.0501 | 0.0458 | 0.0503 |  | 0.0579 | 
I167Y | 0.092 |  |  |  | 0.0634 | 0.0487 | 0.0736 | 0.0388 | 0.068 | 0.0653 |  | 0.0518 | 0.0501 | 0.0465 |  |  |  | 0.0612 | 0.0594
N172E | 0.0667 |  | 0.0731 | 0.0629 | 0.0869 | 0.0618 | 0.0657 |  |  |  | 0.0732 |  |  |  | 0.056 |  |  | 0.0697 | 
T176A | 0.0861 | 0.0656 | 0.0672 | 0.0364 |  |  | 0.0785 |  | 0.0784 | 0.0583 | 0.0385 | 0.0315 |  |  | 0.111 |  |  | 0.0517 | 
F180G | 0.0953 |  | 0.0454 |  | 0.0608 | 0.0591 | 0.0751 | 0.0318 | 0.0644 | 0.0497 | 0.0535 | 0.0549 |  |  |  |  |  | 0.0557 | 
F180W | 0.111 | 0.0749 |  | 0.056 | 0.0515 | 0.0505 | 0.0866 | 0.0442 |  | 0.0565 | 0.0645 |  | 0.0593 |  | 0.0596 | 0.05 |  |  | 0.0537
T181P | 0.0488 | 0.0524 | 0.0554 | 0.0687 | 0.0495 | 0.0587 | 0.0583 | 0.0525 | 0.0536 |  |  |  |  | 0.0519 |  | 0.0563 | 0.0505 |  | 
V183L | 0.0783 | 0.0756 |  |  | 0.0703 | 0.064 | 0.0829 | 0.0799 |  | 0.0591 | 0.0662 | 0.0662 |  |  |  | 0.0671 |  |  | 
